Reference: PubChem BioAssay AID2708 (National Center for Advancing Translational Sciences (NCATS), 2010)
“And” between values parts separate entries of the source, which are not always exact repeats. Identical values can stand only once. Inconclusive results, whose numbers are uncertain, are shown with a selection of clear calls. No potency is given beside an inconclusive call; the fits are too rough. Where a structure was tested more than once in an assay, its records may differ in their call. The source made the active and inactive calls. Calls come from the whole dose curve; as a rule, active = well fitted inhibition curve with a large enough effect; inconclusive = small, poorly fitted or top-dose-only effect; inactive = no such curve, though single readings can be large or run the other way.

biological target: ATP-dependent DNA helicase Q1 (Homo sapiens) (UniProt P46063); test: Confirmation qHTS Assay for Inhibitors of RecQ-Like Dna Helicase 1 (RECQ1); settings: RECQ1 helicase DNA unwinding, fluorescence; series mostly up to 229 µM; activity change, negative = inhibition: at the top concentration; note: nearly all actives have a fitted effect of over 45% in size
Description: Survival of cells and the faithful propagation of the genome depend on elaborate mechanisms of detecting and repairing DNA damage. Treatment of advanced cancer relies on radiation therapy or chemotherapy, which kill cancer cells by causing extensive DNA damage. It is often found, that cancer cells develop resistance to therapy through enhanced activity of DNA repair functions; this has led to an increased interest in developing drugs that interfere with DNA repair, which could sensitize cancer cells to conventional therapy.
This validation qHTS assay pertains to human RECQ1, which is important in resolving abnormal DNA structures formed during replication or homologous recombination. Shutting down the expression of RECQ1 leads to chromosomal instability and higher radiation sensitivity in cultured cells.
The validation assay was a fluorescence quenching based kinetic qHTS for RECQ1 Helicase DNA unwinding. The activity was measured as ATP-dependent separation of a 20-bp DNA duplex extended by 30-nt single-stranded tails (forked duplex). The forked DNA substrate was tagged with rhodamine fluorophore (carboxytetramethyl rhodamine, TAMRA) and BHQ-2 (Black Hole Quencher 2) dark quencher. Strand separation results in an increase in the fluorescence of TAMRA (excitation 525 nm, emission 598 nm). This substrate construct operates in a red-shifted region where very few compound library members have been noted to fluoresce (PubChem AIDs 593 and 594). An additional feature of the assay is the inclusion of 2.5 ug/ml poly (dIdC), to reduce interference by compounds such as DNA intercalators, a major source of false inhibitors.
Opher Gileadi, Structural Genomics Consortium, University of Oxford
Screening Center PI: Austin, C.P.
Screening Center: NIH Chemical Genomics Center [NCGC]
Three uL of reaction buffer (25 mM Tris-HCl (pH 8.0), 5 mM NaCl, 2 mM MgCl2, 1mM DTT, 0.01% Tween- 20, and 2.5 ug/ml poly(dI-dC), including enzyme (50 nM RECQ1T1), were dispensed into a 1536-well Greiner black assay plate via solenoid-valve based nanoliter dispensers. Compounds (23 nl each in columns 5-48) and control (23 nl each in column 2 as dose-response) were transferred via a Kalypsys pintool equipped with a 1536-pin array. The plates were incubated for 15 min at room temperature, and then 1 ul of substrates (200 nM DNA and 2 mM ATP, final concentrations) was added to start the reaction. The plate was transferred into a ViewLux high-throughput CCD imager where the reaction progress was measured in a discontinuous kinetic mode (two reads spaced 2 hours apart, with intermediate room temperature incubation of the covered assay plate) by using standard red-fluorescence optics (excitation filter 525 nm, emission filter 598 nm). Enzyme-free and vehicle (DMSO) controls were included for signal normalization.
% is set by controls: 0 for no effect and ±100 for the full control effect; potency is the fitted concentration of half-maximal effect; tags give direction and shape of the fitted curve.

Chain of UniProt P46063 (P46063 whole entry, looked up): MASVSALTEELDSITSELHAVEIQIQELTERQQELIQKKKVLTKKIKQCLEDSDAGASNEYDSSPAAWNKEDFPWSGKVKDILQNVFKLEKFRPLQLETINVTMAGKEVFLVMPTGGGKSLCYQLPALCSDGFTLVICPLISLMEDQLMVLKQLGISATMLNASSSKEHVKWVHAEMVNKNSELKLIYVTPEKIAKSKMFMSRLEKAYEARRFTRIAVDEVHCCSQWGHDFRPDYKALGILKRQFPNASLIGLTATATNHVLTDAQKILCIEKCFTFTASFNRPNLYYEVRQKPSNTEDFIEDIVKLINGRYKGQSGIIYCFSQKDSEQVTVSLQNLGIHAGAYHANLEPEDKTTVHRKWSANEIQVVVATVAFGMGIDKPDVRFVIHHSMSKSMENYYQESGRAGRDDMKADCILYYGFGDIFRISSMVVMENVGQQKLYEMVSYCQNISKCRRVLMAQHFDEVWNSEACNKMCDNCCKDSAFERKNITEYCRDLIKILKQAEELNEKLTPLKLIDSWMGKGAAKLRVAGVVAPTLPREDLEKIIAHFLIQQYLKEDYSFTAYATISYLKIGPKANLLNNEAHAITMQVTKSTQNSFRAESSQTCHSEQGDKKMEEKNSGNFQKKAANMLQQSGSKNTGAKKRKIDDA

Compound | activity change, negative = inhibition | Potency
O=C(CCn1nnc2ccccc2c1=O)N[C@@H](Cc1c[nH]c2ccccc12)C(=O)O | inactive: 2.77% | –
O=C(COC(=O)c1ccc(NS(=O)(=O)c2cccs2)cc1)NCc1ccco1 | – | active: 31.6 µM
NC[C@H](O)c1ccc(O)c(O)c1 | – | inactive and active: 25.1 µM
Cc1cccc(C(=O)Nc2ccc(C(=O)/C=C/c3cccnc3)cc2)c1 | inactive: -7.79% [at 114 µM] | –
O=C(O)CCCCCn1c(SCc2cc(=O)n3cc(Cl)ccc3n2)nc2ccsc2c1=O | – | inconclusive [inhibitor, partial curve, poor fit]
O=C(COC(=O)c1cncc(Br)c1)NCc1ccco1 | – | active: 25.1 µM
Cc1ccc(S(=O)(=O)N(CC(=O)Nc2cccc(N(C)S(C)(=O)=O)c2)c2ccc(Cl)c(Cl)c2)cc1 | – | inconclusive [inhibitor, full curve, poor fit]
CC(C)(C)[C@@H]1C=C(C(=O)NCc2ccccc2)O[C@H](OCc2ccc(CO)cc2)C1 | inactive: 5.87% [at 114 µM] | –
COc1cccc2c1C(=O)c1c(O)c3c(c(O)c1C2=O)C[C@@](O)(C(=O)CO)C[C@@H]3O[C@H]1C[C@H](N)[C@H](O)[C@H](C)O1 | – | active: 36.3 µM
COc1ccccc1-n1c(SCC(=O)Nc2ccccc2C)nc(O)cc1=O | inactive: 11.4% [at 114 µM] | –
Nc1cccc2c(=O)[nH]ccc12 | – | inconclusive [inhibitor, full curve, poor fit]
C=CCc1cccc(/C=N/NC(=O)CN2CCN(Cc3ccccc3)CC2)c1O | – | inconclusive [inhibitor, partial curve, poor fit]
COc1cc2cc3c4c(cc(OC)c(OC)c4c2cc1OC)CCN3C | – | inconclusive [inhibitor, partial curve, poor fit]
CCCCn1cnc2c(=O)[nH]c(N)nc21 | inactive: -2.6% [at 69.1 µM] | –
Cc1c(-n2c(SC(C)C(=O)NC(N)=O)nc3ccccc3c2=O)c(=O)n(-c2ccccc2)n1C (stereo not given) | inactive: 0.534% | –
CCCCNC(=O)c1onc(CSc2cccc3ccccc23)c1C(=O)O | – | inconclusive [inhibitor, single point]
Cc1[nH]c2ccccc2c1/C=N/NC(=O)c1cccc([N+](=O)[O-])c1 | – | inconclusive [inhibitor, single point]
O=C(NCc1ccccc1)C1=C[C@@H](C2CCCCC2)C[C@@H](OCc2ccc(CO)cc2)O1 | inactive: -5.77% [at 114 µM] | –
Nc1nc(Nc2ccc(Cl)cc2)nc(NCc2ccco2)c1[N+](=O)[O-] | – | active: 31.6 µM
CC1(C)CCC2=C(O1)c1ccccc1C(=O)C2=O | – | inconclusive [inhibitor, single point]

Compound | activity change, negative = inhibition | Potency
O=C(N/N=C/c1sc(N2CCCCC2)nc1-c1cccs1)c1cccnc1 | inactive: 4.33% [at 114 µM] | –
CC1(OC(=O)c2cccs2)C(=O)C=C2C=C3CCCN3C=C2C1=O (stereo not given) | – | active: 35.5 µM
Cc1cc(C(F)(F)F)n2[nH]c(=O)c(N=Nc3ccccc3)c2n1 | inactive: 2.55% [at 114 µM] | –
CCOc1ccc(C(=O)Nc2ccc(-c3nc4ccccc4[nH]3)cc2)cc1[N+](=O)[O-] | – | inconclusive [inhibitor, partial curve]
O=c1nc2s/c(=C\c3ccco3)c(=O)n2nc1Cc1ccccc1 | – | inconclusive [inhibitor, single point]
O=C(O)CN(CC(=O)O)Cc1cc2c(-c3ccccc3C(=O)O)c3cc(CN(CC(=O)O)CC(=O)O)c(=O)cc-3oc2cc1O | – | active: 112 µM
O=C1c2nc3cc(-c4ccco4)[nH]n3c(=O)c2CN1Cc1ccccc1 | – | inconclusive [inhibitor, single point]
O=C(O)COc1ccc(/C=N/NC(=O)c2ccc(-c3csc(Nc4ccc(Cl)cc4)n3)cc2)cc1 | – | active: 7.08 µM
COc1cc(C2C(C(=O)c3ccc(C)o3)=C(O)C(=O)N2CCc2ccccc2)ccc1O (stereo not given) | inactive: 11.1% | –
COc1ccc(CNCC(O)(c2ccc(Cl)cc2)c2ccc(Cl)cc2)cc1OC | – | inconclusive [inhibitor, full curve, poor fit]
O=C(O)c1ccc2c(c1)C(=O)N(c1cccc(C(=O)/C=C/c3ccccc3)c1)C2=O | – | inconclusive [inhibitor, single point]
CCN(CC)C(=O)CSc1nc2ccc(NC(=O)CSc3nccn3C)cc2s1 | – | inconclusive [inhibitor, partial curve]
CCOc1ccccc1/C=C(\NC(=O)c1ccccc1)C(=O)NCCC(=O)O | inactive: -0.0937% | –
N#Cc1c(-c2ccco2)cc(-c2ccccc2)[nH]c1=O | – | inconclusive [inhibitor, single point]
CC1/C=C/C=C/C=C/C=C/C=C/C=C/C=C/C(OC2OC(C)C(O)C(N)C2O)CC2O[C@@](O)(CC(O)CC(O)C(O)CCC(O)CC(O)CC(=O)OC(C)[C@H](C)C1O)CC(O)C2C(=O)O (stereo not given in full) | – | inconclusive [inhibitor, partial curve, poor fit]
Nc1ccc(-c2nc3ccc(-c4nc5ccc(N)cc5[nH]4)cc3[nH]2)cc1 | – | active: 28.2 µM
O=C(CSc1nc2ccccc2c(=O)[nH]1)c1ccc(O)c(O)c1 | – | inconclusive [inhibitor, partial curve, poor fit]
COc1ccc(Br)cc1/C=c1\sc2nc(-c3ccco3)nn2c1=O | – | active: 20 µM
Cc1nn(CCc2nc(-c3ccco3)cs2)c2[nH]c(=O)cc(C(F)(F)F)c12 | – | inconclusive [inhibitor, single point]
CC(C)CC1=C/C(=C/c2ccc(-c3ccccc3)o2)C(=O)O1 | – | inconclusive [inhibitor, single point]
